In patent publication US11178870B2 (priority 2017, dated 2021):

Assays:
[1] = test system: Magnaporthe grisea; assay type: in vivo; settings: Table 7, Test A
[2] = test system: Phytophthora infestans; assay type: in vivo; settings: Table 7, Test F
[3] = test system: Colletotrichum orbiculare; settings: 250 ppm sprayed (2.5 ml/pot) before inoculation; assessed 6 to 10 days after inoculation

| Compound | control value, Test A (blast on rice) [1] | control value, Test F (late blight on tomato) [2] | control value, Test H (anthracnose on cucumber) [3] |
| --- | --- | --- | --- |
| Cc1cnn(-c2ccc(=O)n(CC(F)F)c2-c2c(F)cccc2F)c1 [Compound 186] | H (H shows the control value more than 50%) | L (L shows the control value of 50% or less) | H (H shows the control value more than 50%) |
| CCn1c(-c2ccc(F)cc2Br)c(-n2cc(C)cn2)ccc1=O [Compound 330] | H (H shows the control value more than 50%) | L (L shows the control value of 50% or less) | H (H shows the control value more than 50%) |
| CCn1c(-c2c(F)cc(F)cc2F)c(-n2cc(F)cn2)ccc1=O [Compound 191] | H (H shows the control value more than 50%) | L (L shows the control value of 50% or less) | H (H shows the control value more than 50%) |
| O=c1c(Cl)cc(-c2cc(Cl)sc2Br)c(-c2c(F)cccc2F)n1CC(F)F [Compound 349] | H (H shows the control value more than 50%) | L (L shows the control value of 50% or less) | H (H shows the control value more than 50%) |
| CCn1c(-c2ccccc2Cl)c(-n2cc(F)cn2)ccc1=O [Compound 350] | L (L shows the control value of 50% or less) | – | – |
| COc1ccc(-c2c(-n3cc(Cl)cn3)cc(Cl)c(=O)n2CC(F)F)c(Cl)c1 [Compound 239] | H (H shows the control value more than 50%) | L (L shows the control value of 50% or less) | H (H shows the control value more than 50%) |
| CCn1c(-c2c(F)cccc2F)c(-c2ccsc2Cl)ccc1=O [Compound 296] | H (H shows the control value more than 50%) | L (L shows the control value of 50% or less) | H (H shows the control value more than 50%) |
| CCn1c(-c2c(F)cccc2F)c(-c2ccsc2Cl)cc(Cl)c1=O [Compound 298] | H (H shows the control value more than 50%) | L (L shows the control value of 50% or less) | H (H shows the control value more than 50%) |
| CCn1c(-c2c(F)cc(OC)cc2F)c(-n2cnc(Cl)n2)cc(Cl)c1=O [Compound 267] | H (H shows the control value more than 50%) | L (L shows the control value of 50% or less) | H (H shows the control value more than 50%) |
| CCn1c(-c2c(F)cc(OC)cc2F)c(-n2cc(F)cn2)cc(Br)c1=O [Compound 315] | H (H shows the control value more than 50%) | L (L shows the control value of 50% or less) | H (H shows the control value more than 50%) |
| CCn1c(-c2ccccc2F)c(-n2cc(C)cn2)ccc1=O [Compound 259] | L (L shows the control value of 50% or less) | L (L shows the control value of 50% or less) | L (L shows the control value of 50% or less) |
| O=c1c(Cl)cc(-n2cc(Cl)cn2)c(-c2ccccc2Cl)n1CC(F)F [Compound 293] | H (H shows the control value more than 50%) | L (L shows the control value of 50% or less) | L (L shows the control value of 50% or less) |
| O=c1ccc(-c2cc(Cl)sc2Br)c(-c2c(F)cccc2F)n1CC(F)F [Compound 348] | H (H shows the control value more than 50%) | L (L shows the control value of 50% or less) | L (L shows the control value of 50% or less) |
| CCn1c(-c2c(F)cc(OC)cc2F)c(-n2cc(F)cn2)ccc1=O [Compound 308] | H (H shows the control value more than 50%) | L (L shows the control value of 50% or less) | H (H shows the control value more than 50%) |
| CCn1c(-c2ccc(C#N)cc2F)c(-n2cc(Cl)cn2)cc(Br)c1=O [Compound 280] | H (H shows the control value more than 50%) | L (L shows the control value of 50% or less) | H (H shows the control value more than 50%) |
| O=c1c(Cl)cc(-n2cnc(Cl)c2Cl)c(-c2ccccc2Cl)n1CC(F)F [Compound 232] | H (H shows the control value more than 50%) | L (L shows the control value of 50% or less) | L (L shows the control value of 50% or less) |
